Experimental data: the supplement of paper PMC8728848
The list shows a part of the results.

Columns and labels:
Assay in all cases: glycan array binding signal (z-score within array); higher = stronger binding
Details in all cases: glycan notation: IUPAC condensed, linker removed
[1] = biological target: GlcNAc(b1-4)GlcNAc(b1-4)GlcNAc(b1-4)GlcNAc(b1-4)GlcNAc(b1-4)GlcNAc
In short: (§1)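 Columns mapping to the same glycan were averaged after glycan names were converted to IUPAC-condensed notation. The data come from 3228 arrays in the Consortium for Functional Glycomics database, limited to those with an available protein sequence. Binding is reported as a within-array Z-score averaged across arrays of one protein sequence and across linkers.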

[2] = biological target: GlcNAc(b1-4)[GlcNAc(b1-6)]GalNAc
In short: as §1

[3] = biological target: GlcNAc(b1-6)Gal(b1-4)GlcNAc
In short: as §1

GlcNAc(b1-6)GalNAc = biological target: GlcNAc(b1-6)GalNAc
In short: as §1

[4] = biological target: GlcNAc6S(b1-3)Gal(b1-4)GlcNAc
In short: as §1

Kdn(a2-3)Gal(b1-3)GalNAc = biological target: Kdn(a2-3)Gal(b1-3)GalNAc
In short: as §1

Kdn(a2-3)Gal(b1-3)GlcNAc = biological target: Kdn(a2-3)Gal(b1-3)GlcNAc
In short: as §1

Kdn(a2-3)Gal(b1-4)Glc = biological target: Kdn(a2-3)Gal(b1-4)Glc
In short: as §1

Kdn(a2-3)Gal(b1-4)GlcNAc = biological target: Kdn(a2-3)Gal(b1-4)GlcNAc
In short: as §1

[5] = biological target: Kdn(a2-3)Gal(b1-4)[Fuc(a1-3)]GlcNAc
In short: as §1

Kdn(a2-6)Gal(b1-4)GlcNAc = biological target: Kdn(a2-6)Gal(b1-4)GlcNAc
In short: as §1

[6] = biological target: Man(a1-2)Man(a1-2)Man(a1-3)Man
In short: as §1

[7] = biological target: Man(a1-2)Man(a1-2)Man(a1-6)[Man(a1-3)]Man
In short: as §1

Man(a1-2)Man(a1-3)Man = biological target: Man(a1-2)Man(a1-3)Man
In short: as §1

[8] = biological target: Man(a1-2)Man(a1-3)[Man(a1-2)Man(a1-6)]Man
In short: as §1

[9] = biological target: Man(a1-2)Man(a1-3)[Man(a1-2)Man(a1-6)]Man(a1-6)[Man(a1-2)Man(a1-2)Man(a1-3)]Man
In short: as §1

[10] = biological target: Man(a1-2)Man(a1-3)[Man(a1-2)Man(a1-6)]Man(a1-6)[Man(a1-2)Man(a1-2)Man(a1-3)]Man(b1-4)GlcNAc(b1-4)GlcNAc
In short: as §1

[11] = biological target: Man(a1-2)Man(a1-3)[Man(a1-6)]Man(a1-6)[Man(a1-2)Man(a1-3)]Man(b1-4)GlcNAc(b1-4)GlcNAc
In short: as §1

[12] = biological target: Man(a1-2)Man(a1-6)[Man(a1-3)]Man(a1-6)[Man(a1-2)Man(a1-2)Man(a1-3)]Man
In short: as §1

[13] = biological target: Man(a1-2)Man(a1-6)[Man(a1-3)]Man(a1-6)[Man(a1-2)Man(a1-2)Man(a1-3)]Man(b1-4)GlcNAc(b1-4)GlcNAc
In short: as §1

Man(a1-3)[Man(a1-6)]Man = biological target: Man(a1-3)[Man(a1-6)]Man
In short: as §1

[14] = biological target: Man(a1-3)[Man(a1-6)]Man(a1-6)[Man(a1-2)Man(a1-3)]Man(b1-4)GlcNAc(b1-4)GlcNAc
In short: as §1

[15] = biological target: Man(a1-3)[Man(a1-6)]Man(a1-6)[Man(a1-3)]Man
In short: as §1

[16] = biological target: Man(a1-3)[Man(a1-6)]Man(a1-6)[Man(a1-3)]Man(b1-4)GlcNAc(b1-4)GlcNAc
In short: as §1

[17] = biological target: Man(a1-3)[Man(a1-6)]Man(b1-4)GlcNAc(b1-4)GlcNAc
In short: as §1

[18] = biological target: Man(a1-3)[Man(a1-6)]Man(b1-4)GlcNAc(b1-4)[Fuc(a1-6)]GlcNAc
In short: as §1

Man(a1-6)Man = biological target: Man(a1-6)Man
In short: as §1

Man(b1-4)GlcNAc = biological target: Man(b1-4)GlcNAc
In short: as §1

MurNAc(b1-4)GlcNAc = biological target: MurNAc(b1-4)GlcNAc
In short: as §1

Neu5Ac(a2-3)Gal = biological target: Neu5Ac(a2-3)Gal
In short: as §1

[19] = biological target: Neu5Ac(a2-3)Gal(b1-3)GalNAc
In short: as §1

[20] = biological target: Neu5Ac(a2-3)Gal(b1-3)GalNAc(b1-3)Gal(a1-4)Gal(b1-4)Glc
In short: as §1

[21] = biological target: Neu5Ac(a2-3)Gal(b1-3)GalNAc(b1-4)[Neu5Ac(a2-3)]Gal(b1-4)Glc
In short: as §1

[22] = biological target: Neu5Ac(a2-3)Gal(b1-3)GalNAc(b1-4)[Neu5Ac(a2-8)Neu5Ac(a2-3)]Gal(b1-4)Glc
In short: as §1

[23] = biological target: Neu5Ac(a2-3)Gal(b1-3)GalNAc6S
In short: as §1

[24] = biological target: Neu5Ac(a2-3)Gal(b1-3)GlcNAc
In short: as §1

[25] = biological target: Neu5Ac(a2-3)Gal(b1-3)GlcNAc(b1-2)Man
In short: as §1

B1: PX14343A-bvu-539-29-539 (Bacteroides vulgatus) (protein)
chain: DSLTESSSNTFWQTPDDALMALASCYDALQSNQLYNSDQYSLGPLYMDCISDNGGHFNWSGWMEGYDMAMGIHTPSSSIIGSYWKDCYEVISRCNVLIANIDRVDMDASQKAIYQAEAKTIRALMYINLTMTYQDVPFLTAPLTIDEAECEKTDRAAIVAHVMTDLQDAAEVLPQNASSRGHITKGAALSLLGRVALYNEKWDDAIAAYKQVQGLGYSLDPSYAKLFTQSGETSPEIIFAVRYEGPGMSEGAAFNAHWNTPLEAMNGTIDLADAYYCKDGKPTTDTKIAELNGGGGLDVSKPNPAHFENRDPRLYSTLFVPGMLWNGKGGIDTSASNPYANVYGGAAASLSTVYVYKYFDPTDTSNSWDNGQDFYVVRYAEVLLSLAEAMVQKGGYVYSDVTALVNEVRQRADVNMPTVEEVEGTSLSKDELLEVIKHERRVELAFEGLRLFDLYRWKELDKAVANIENERTMYGLAYEARKFNGERDYVWPLPTAELDTNKKLVQHDLWK
B1 was tested, and the “glycan array binding signal (z-score)” value [1] was -0.481, the “glycan array binding signal (z-score)” value [2] was -0.304 and the “glycan array binding signal (z-score)” value [3] was -0.038. For the same binder, the “glycan array binding signal (z-score)” value (GlcNAc(b1-6)GalNAc) was 0.234, the “glycan array binding signal (z-score)” value [4] was -0.178 and the “glycan array binding signal (z-score)” value (Kdn(a2-3)Gal(b1-3)GalNAc) was -0.192. The “glycan array binding signal (z-score)” value (Kdn(a2-3)Gal(b1-3)GlcNAc) was -0.031, the “glycan array binding signal (z-score)” value (Kdn(a2-3)Gal(b1-4)Glc) was -0.013 and the “glycan array binding signal (z-score)” value (Kdn(a2-3)Gal(b1-4)GlcNAc) was -0.036. For the same binder, the “glycan array binding signal (z-score)” value [5] was 0.106, the “glycan array binding signal (z-score)” value (Kdn(a2-6)Gal(b1-4)GlcNAc) was -0.096 and the “glycan array binding signal (z-score)” value [6] was -0.136. For the same binder, the “glycan array binding signal (z-score)” value [7] was -0.086, the “glycan array binding signal (z-score)” value (Man(a1-2)Man(a1-3)Man) was -0.271 and the “glycan array binding signal (z-score)” value [8] was -0.129. The “glycan array binding signal (z-score)” value [9] was -0.261, the “glycan array binding signal (z-score)” value [10] was -0.433 and the “glycan array binding signal (z-score)” value [11] was -0.437. The “glycan array binding signal (z-score)” value [12] was -0.259, the “glycan array binding signal (z-score)” value [13] was -0.229 and the “glycan array binding signal (z-score)” value (Man(a1-3)[Man(a1-6)]Man) was -0.263. For the same binder, the “glycan array binding signal (z-score)” value [14] was -0.34, the “glycan array binding signal (z-score)” value [15] was -0.226 and the “glycan array binding signal (z-score)” value [16] was -0.247. For the same binder, the “glycan array binding signal (z-score)” value [17] was -0.432, the “glycan array binding signal (z-score)” value [18] was -0.297 and the “glycan array binding signal (z-score)” value (Man(a1-6)Man) was -0.184. For the same binder, the “glycan array binding signal (z-score)” value (Man(b1-4)GlcNAc) was 0.136, the “glycan array binding signal (z-score)” value (MurNAc(b1-4)GlcNAc) was -0.208 and the “glycan array binding signal (z-score)” value (Neu5Ac(a2-3)Gal) was -0.168. The “glycan array binding signal (z-score)” value [19] was -0.339, the “glycan array binding signal (z-score)” value [20] was -0.244 and the “glycan array binding signal (z-score)” value [21] was -0.382. The “glycan array binding signal (z-score)” value [22] was -0.04, the “glycan array binding signal (z-score)” value [23] was -0.395 and the “glycan array binding signal (z-score)” value [24] was -0.327. The “glycan array binding signal (z-score)” value [25] was 0.076.
